The whole screen tested about 52,000 compounds, of which about 4,300 (8.3%) were called active. Rule as the data show it: active = survival mostly below about 52% (no sharp cut-off); inactive = mostly above about 56%. This is one part of the list.

90 compounds from PubChem BioAssay AID463173 (ICCB-Longwood Screening Facility, Harvard Medical School, 2010) can be followed below.

For this assay, the system named is DeltatarO mutant. The assay is described as follows: S. aureus survival, RN4220 and DeltatarO strains – OD600, teichoic acid synthesis inhibitors, primary screen (AID 463173). The following applies: S. aureus RN4220 wild type/DeltatarO growth, OD600, 18 h, stronger effect = lower value, screened at 18.75 µg/mL (by protocol).
In the case of `Cc1ccc(CNC(=O)c2cnn3c(C)c(Cc4c(F)cccc4Cl)c(C)nc23)cc1`, the survival was inactive: 70%.
The figure for `Cc1cccc(-c2nnc(SCC(=O)NC3CCCCC3)o2)c1` is inactive: 82%; for `COCCNC(=O)CCn1c(=O)c2cc(OC)c(OC)cc2n(CC(=O)Nc2ccccc2OC)c1=O` it is inactive: 97%; for `COc1ccccc1NC(=O)c1c(C)cc(C)nc1SCC(=O)Nc1cccc(C)c1` it is inactive: 52%.
The figure for `CCc1cccc(CC)c1N(COC)C(=O)Cn1c(C)nc2ccccc21` is inactive: 59%; for `CCN(CC)CCOC(=O)c1ccc(NC(=O)CSc2cc(=O)n(CC)c3ccccc23)cc1` it is inactive: 131%.
As for `CCc1nn(CC(=O)Nc2ccc(C)cc2C)c(=O)c2cc3sccc3n12`, the figure is inactive: 83%.
Regarding `O=C(Nc1ccc(F)c(Cl)c1)C1Cc2ccccc2CN1S(=O)(=O)c1ccc(F)cc1` (stereo not given), the survival was inactive: 58%.
The figure for `COc1cccc(NC(=O)CSc2nc3c([nH]c4ccccc43)c(=O)n2-c2cccc(Cl)c2)c1` is inactive: 87%; for `Cc1ccc(Cn2ccn(Cc3cccc(C(F)(F)F)c3)c(=O)c2=O)cc1` it is inactive: 111%.
As for `CN(c1ccccc1)N1C(=O)c2cccc3cccc(c23)C1=O`, the figure is inactive: 75%; as for `O=C(CCC(=O)N1CCc2ccccc21)N1CCc2ccccc21`, inactive: 84%; as for `Cc1ccc(-c2ccc(=O)n(CC(=O)Nc3ccc(C(C)C)cc3)n2)cc1`, inactive: 55%.
As for `CCOC(=O)c1ccc(NC(=O)CSc2nc(C)c(Cc3ccccc3)c(=O)[nH]2)cc1`, the figure is active: 45%; as for `N#C/C(=C\C1CC=CCC1)c1nc2ccccc2c(=O)[nH]1` (stereo not given), inactive: 76%.
As to `C=CCOc1ccc(C2c3c(oc4ccc(C)cc4c3=O)C(=O)N2CCCN2CCOCC2)cc1` (stereo not given), the survival is inactive: 73%.
As for `Cc1ccc(C2=NN(CC(=O)NC(C)c3ccccc3)C(=O)CC2)cc1` (stereo not given), the figure is inactive: 71%; as for `CCOC(=O)c1c(NC(=O)COc2cccc(C)c2C)sc2c1CCCCC2`, inactive: 64%; as for `CC(C)c1ccc(Nc2c(-c3ccc(N4CCOCC4)cc3)nc3ncccn23)cc1`, inactive: 83%.
As for `COc1ccc(NC(=O)C2CCC(CNS(=O)(=O)c3csc(C(N)=O)c3)CC2)cc1` (stereo not given), the figure is inactive: 82%; as for `COc1ccc(Nc2ncnc3onc(-c4ccc(Cl)cc4)c23)cc1Cl`, inactive: 132%; as for `Cc1ccc(NC(=O)c2cn(-c3ccccc3)nc2-c2ccccc2)cc1`, inactive: 98%.
As for `CCCCn1c(SCC(=O)Nc2cccc(OC)c2)nc2ccsc2c1=O`, the figure is inactive: 134%; as for `COc1cc(OC)c(NC(=O)c2cnn(-c3cccc(Cl)c3C)c2C2CCN(C(=O)OC(C)(C)C)CC2)cc1Cl`, inactive: 66%; as for `COc1ccc(-n2cc(-c3ccccc3)c3c(NCc4cccc(Cl)c4)ncnc32)cc1`, inactive: 79%.
`O=C(NCc1ccccc1)c1ccc(NC(=O)N2CCSc3ncccc32)cc1`: the survival is inactive: 91%.
For `O=S(=O)(c1ccc(Br)cc1)c1nc(-c2ccco2)oc1SCc1ccccc1F`, the survival is active: 44%.
The figure for `CC(=O)c1cc(-c2ccc(F)cc2)n(CC(=O)NC2CCCCCC2)c1C` is inactive: 74%.
As to `COc1cccc(CNS(=O)(=O)c2c(C)nc3scc(C)n3c2=O)c1`, the survival was inactive: 141%.
The figure for `CCOc1ccc(CCNC(=O)CN2C(=O)c3cccnc3Oc3ccc(C)cc32)cc1OCC` is inactive: 67%; for `COc1ccc(NC(=O)c2ccco2)cc1NC(=O)C(C)Oc1ccc(Cl)cc1Cl` (stereo not given) it is active: 28%; for `O=C(Nc1ccc(NC(=O)c2cccs2)cc1)c1cccs1` it is inactive: 99%.
As for `CCCOc1ccc(-c2cccc(NS(=O)(=O)c3cccs3)c2)nn1`, the figure is inactive: 80%; as for `O=C(Nc1cccc(C(F)(F)F)c1)c1cc2nc(-c3ccccc3)cc(C(F)(F)F)n2n1`, inactive: 60%.
As for `COc1ccc(-c2onc(C)c2C)cc1S(=O)(=O)Nc1ccc(OC(F)(F)F)cc1`, the figure is inactive: 88%.
As for `CCOC(=O)c1cccc(NC(=O)c2cc(S(=O)(=O)N3CCCC3)cn2C)c1`, the survival was inactive: 71%.
As for `Cc1ccc(CSc2oc(-c3ccco3)nc2S(=O)(=O)c2ccc(Cl)cc2)cc1`, the figure is inactive: 63%.
As for `CCOC(=O)CNC(=O)c1cc2c(=O)n(CC)c3ccccc3c2s1`, the figure is inactive: 94%; as for `CCCOC(=O)c1ccc(NC(=O)Cn2nnc3sc4c(c3c2=O)CCC(C(C)(C)C)C4)cc1` (stereo not given), inactive: 69%; as for `Cc1ccc(CNC(=O)CSc2ccc(-c3sc(-c4ccccc4)nc3C)nn2)cc1`, inactive: 93%.
As for `CCCCN(CC)C(=O)c1c[nH]c2ccc(S(=O)(=O)Nc3cccc(OC)c3)cc2c1=O`, the figure is inactive: 80%; as for `COc1ccc(NC(=O)C2=C(C)Nc3c(C(=O)Nc4ccc(C)cc4)cnn3C2c2cccc(Cl)c2)cc1` (stereo not given), inactive: 94%; as for `COc1ccc(NC(=O)CC2Nc3cccc4cccc(c34)NC2=O)cc1` (stereo not given), active: 41%.
As to `Cc1ccc2oc(-c3cccc(NC(=O)c4cccc5c(Br)cccc45)c3)nc2c1`, the survival is inactive: 153%.
In the case of `O=C(CCCn1c(=O)c2cccn2c2ccccc21)Nc1cccc(Cl)c1`, the survival was active: 41%.
As for `Clc1ccccc1CSc1nncn2c1cc1occc12`, the figure is inactive: 62%; as for `CC(=O)N1c2ccccc2CC1C(=O)N1CCN(c2cccc(C)c2C)CC1` (stereo not given), inactive: 99%.
As for `Cc1oc2ccc(O)c(CN3CCOCC3)c2c1C(=O)Nc1ccc(C(C)C)cc1`, the figure is inactive: 91%; as for `CCOc1ccccc1CNC(=O)CCCn1c(=O)c2cccn2c2cccnc21`, inactive: 102%; as for `Clc1ccc(N2CCN(Cc3nnc(-c4ccc5c(c4)OCO5)o3)CC2)cc1`, inactive: 91%.
With `CCN1/C(=C(\C#N)c2nc(C#N)c(C#N)nc2N2CCOCC2)Nc2ccccc21`, the survival was inactive: 104%.
The figure for `COc1ccc(-c2cccc(NS(=O)(=O)c3cccs3)c2)nn1` is inactive: 73%; for `Cc1cccn2c(=O)cc(COc3cccc(NC(=O)COc4ccccc4)c3)nc12` it is inactive: 73%; for `COc1cccc(-c2nc3c(c(SCC(=O)Nc4cc(C)ccc4C)n2)Cc2c(CO)cnc(C)c2O3)c1` it is inactive: 77%.
As for `CC(=O)c1ccc(NC(=O)CCc2nc(-c3ccc(C)cc3)no2)cc1`, the figure is inactive: 67%; as for `COc1ccc(Nc2cc(C(=O)NCCCN(C)Cc3ccccc3)c3ccccc3n2)cc1`, inactive: 109%.
As for `CCOC(=O)c1ccc(NC(=O)CC2C(=O)N(c3ccc(F)cc3)C(=O)N2Cc2ccc(C)cc2)cc1` (stereo not given), the figure is inactive: 54%; as for `COc1ccc(C(=O)Nc2ccccc2-c2nc3ccccc3s2)c(OC)c1`, inactive: 102%; as for `O=C(CSC1CC(=O)N(c2ccccc2)C1=O)Nc1ccc(F)cc1` (stereo not given), inactive: 90%.
Take `CCOc1cc(C2Sc3ccccc3NC3=C2C(=O)c2ccccc23)ccc1O` (stereo not given): the survival is inactive: 48%.
Take `CCOC(=O)c1cnc2ccc(Cl)cc2c1Nc1ccc(OCC)cc1`: the survival is active: -5%.
As for `CN1C(=O)CC(NCc2ccc(S(N)(=O)=O)cc2)C1=O` (stereo not given), the figure is inactive: 97%; as for `Cc1ccc(-c2noc(C3CCN(C(=O)Nc4ccc(C#N)cc4)CC3)n2)o1`, inactive: 93%; as for `Cc1cc(C)c2nc(NC(=O)c3ccc(S(=O)(=O)N4CCC(C)CC4)cc3)sc2c1`, inactive: 105%.
The figure for `CCc1ccc2nc(SCC(=O)N3CC(=O)Nc4ccccc43)c(C#N)cc2c1` is inactive: 107%; for `COc1ccc(NC(=O)C2(c3ccc(OC)cc3)CCOCC2)cc1` it is inactive: 92%; for `CCOC(=O)N1CCc2c(sc3c2c(=O)n(Cc2ccccc2)c(=O)n3Cc2ccc(C)cc2)C1` it is inactive: 79%.
As for `Cc1cc(=O)[nH]c(NCCO)n1`, the figure is inactive: 92%.
As to `COc1ccc(CCNC(=O)CCCn2c(SCC(N)=O)nc3cc4c(cc3c2=O)OCO4)cc1OC`, the survival is inactive: 72%.
As for `COC(=O)C12CC3CC(CC(C(=O)OC)(C1)C3=O)C2=O`, the figure is inactive: 116%; as for `COc1ccc(CNC(=O)C2=C(C)C(=O)OC23CCN(C(C)=O)CC3)cc1`, inactive: 89%; as for `CSc1ccc(CNC(=O)CCc2c(C)nn(-c3ccc(N4CCCC4)nn3)c2C)cc1`, inactive: 66%.
The figure for `CC1CCN(c2oc(-c3ccc(COc4ccc(Cl)cc4)o3)nc2C#N)CC1` is inactive: 81%; for `CCCCOc1ccccc1C(=O)Nc1onc2c1CCCC2` it is inactive: 55%; for `CCc1ccc(-c2nc(CSCC(=O)N3CCN(c4ccc(F)cc4)CC3)c(C)o2)cc1` it is inactive: 73%.
Regarding `Cc1ccc(NC(=O)C2CCCN(c3cnccn3)C2)c(C)c1` (stereo not given), the survival is inactive: 78%.
On to `CC(C)(CO)NC(=O)c1cc(-c2ccc(Cl)cc2Cl)on1`, for which the survival is inactive: 94%.
As for `CCc1ccccc1NC(=O)c1cc2c(Cl)nc3ccccc3c2s1`, the figure is active: 42%; as for `O=C(Oc1ccccc1)c1ccc(-n2cnnn2)cc1`, inactive: 100%.
The figure for `COC(=O)c1ccc(CSc2nnc(-c3ccccc3)o2)o1` is inactive: 76%; for `CCOC(=O)c1cc(-c2ccccc2)n(-c2cccc(C(=O)N(C)c3ccc(C)cc3)c2)c1C` it is inactive: 80%.
As for `CN1CCN(Cc2nc(N)nc(Nc3ccccc3)n2)CC1`, the figure is inactive: 70%; as for `CC(C)C1Oc2ccccc2N(CC(=O)N(CCCN2CCOCC2)Cc2ccc(F)cc2)C1=O` (stereo not given), inactive: 112%; as for `Fc1ccc(N2CCN(Cc3cccn3-c3nnc(N4CCN(C5CCCCC5)CC4)s3)CC2)cc1`, inactive: 94%.
Turning to `COc1ccccc1N=c1scc(-c2ccc(S(=O)(=O)N3CCCC3)cc2)n1C`, the survival is inactive: 74%.
As for `O=C(O)CCC(=O)Nc1nc2ccccc2s1`, the figure is inactive: 91%; as for `Cc1nc2c(c(C)nn2-c2ccccc2)c(C)c1CCC(=O)NCCc1ccc(Cl)cc1`, inactive: 93%.
The figure for `COc1cccc(NC(=O)N2CCN(C(=O)c3nsc4ccccc34)CC2)c1` is inactive: 88%; for `COc1ccccc1CNC(=O)CCNS(=O)(=O)c1cccc2nsnc12` it is inactive: 64%.
As for `COc1cc(C2NC(=O)c3c(sc4c3CCN(C)C4)N2)ccc1OC(=O)c1ccccc1` (stereo not given), the figure is inactive: 55%.
